Test results reported in ChEMBL document CHEMBL1201862, “PubChem BioAssay data set” (2004).
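How tested: cells in 96-well plates exposed to compound for 48 hours at five concentrations. GI50 marks 50% less growth.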 The source made the active and inactive calls. Rule as the data show it: active = GI50 up to about 1.1 µM and inactive = higher.

What follows are compounds tested on NCI-H322M (assay: growth of human tumour cells (NCI), 48 h).

| Compound | GI50 |
| --- | --- |
| CCOC(=O)C(=O)Nc1ccccc1C(C)C | inactive: > 100 µM |
| O=C(Nc1ccccc1[N+](=O)[O-])C(=O)C(C(=O)c1ccccc1-c1ccccc1)C1OC(=O)c2ccccc21 (stereo not drawn) | inactive: 13.7 µM |
| O=c1[nH]c(Br)nc2c(N3CCCCC3)c[nH]c12 | inactive: > 100 µM |
| CC1(C)C2CCC13C(=O)C1OC3(C2)C2C(=O)N(c3ccccc3)C(=O)C12 (stereo not drawn) | inactive: > 100 µM |
| Nc1ccc2c(=O)cc(-c3cccs3)[nH]c2n1 | inactive: 3.27 µM |
| O=C1c2ccc3cc(CCl)cc(O)c3c2C(=O)c2cccc(O)c21 | inactive: 3.84 µM |
| CC1(Br)CC2OC3(Br)C=CC(C)(O)C2(CC1=O)C3(C)C (stereo not drawn) | inactive: > 100 µM |
| N#Cc1c(O)c(/N=N/c2ccc(Cl)cc2)c(=O)n2c1[nH]c1ccccc12 | inactive: 59.3 µM |
| C[C@H](NC(=O)c1ccc(CNC(=O)/C=C/c2cccc(Oc3ccccc3)c2)cc1)c1ccccc1 | inactive: > 100 µM |
| O=C(/C=N/O)Nc1cc(Cl)c(Cl)cc1Cl | inactive: 32.1 µM |
| C/C(=N/S(=O)(=O)c1ccc(Cl)c(Cl)c1)OCC(C)(C)C | inactive: > 100 µM |
| O=c1oc2ccc(Cl)cc2cc1C1=CSC2=NCCN12 | inactive: 21.7 µM |
| O=C(NC(=S)Nc1ccc2c(c1)Sc1ccccc1O2)c1ccc([N+](=O)[O-])cc1 | inactive: > 100 µM |
| N#Cc1nc(CCC(c2nc(C#N)c(N)o2)N2C(=O)c3ccccc3C2=O)oc1N (stereo not drawn) | inactive: > 100 µM |
| Cc1ccc(C2=CC(=O)/C(=C\C(=O)c3ccc(Br)cc3)O2)c(C)c1 | inactive: 33.9 µM |
| COC(=O)C(CCSC)NC(=O)CSc1nnc(COc2ccc(Cl)cc2)n1-c1ccccc1 (stereo not drawn) | inactive: 16.1 µM |
| Brc1cccc(C2SCc3nc4ccccc4n32)c1 (stereo not drawn) | inactive: 36.5 µM |
| O=C(Nc1nnc(S)[nH]1)C(=O)C1C(=O)Nc2ccccc2[S+]1[O-] (stereo not drawn) | inactive: > 100 µM |
| C=C1c2ccccc2C(=O)c2c1c1c(C(=O)OC)c(O)ccc1n2Cc1ccccc1 | inactive: 1.55 µM |
| COc1cc2c(cc1O)[C@@]1(Cc3ccc(OC)c(OC)c3)CCC(=O)N1CC2 | inactive: > 100 µM |
| CCN(CC)CCn1nc(N)c2nc3ccccc3nc21 | inactive: 25.5 µM |
| C1=C(c2ccccc2)SC(N2CCCCC2)S1 (stereo not drawn) | inactive: > 100 µM |
| Cc1ccc(OCC2OC(n3cnc4nc(N)nc(Cl)c43)CC2Oc2ccc(C)cc2)cc1 (stereo not drawn) | inactive: 19.1 µM |
| O=C1OC(c2ccccc2)C2CC3CC4(CCC3CN12)OCCO4 (stereo not drawn) | inactive: > 100 µM |

| Compound | GI50 |
| --- | --- |
| CC[C@@H]1CN(C)[C@H]2Cc3c([nH]c4ccccc34)C(=O)C[C@H]1C2C(=O)OC (stereo partly drawn) | inactive: > 100 µM |
| CCC1=NC(N/N=C/c2ccccc2O)=N/C1=C\c1ccccc1O | inactive: 13.5 µM |
| C1=Cc2nc1c(-c1ccccc1)c1nc(c(-c3ccccc3)c3ccc([nH]3)c(-c3ccccc3)c3ccc([nH]3)c2-c2ccccc2)C=C1 [TETRAPHENYLPORPHYRIN] | inactive: > 100 µM |
| CC1(C)[C@@H]2C[C@H]1c1cnc(-c3ccccn3)cc1C2CCCCC[C@@H]1c2cc(-c3ccccn3)ncc2[C@@H]2C[C@H]1C2(C)C (stereo partly drawn) | inactive: 3.13 µM |
| CC1CCCc2c1c1ccc3c(O)cccc3c1oc2=O (stereo not drawn) | inactive: 25.8 µM |
| COc1cc2c(cc1OC)[C@H]1C(COC(=O)Nc3ccccc3)CN1CC2 (stereo partly drawn) | inactive: 51.5 µM |
| COC(=O)C1C(O)C(C)C(O)C(C)C=C(C)C2=C3C(=C(C)C(=O)c4c(O)c(c(C)c(OC(C)=O)c43)NC(=O)C(C)=C/C=C\C(C)C(O)C(C)C1O)OCO2 (stereo not drawn) | inactive: 49.1 µM |
| Cc1cc(C)n2nc3nc(N)c(C#N)c(-c4ccccc4)c3c2n1 | inactive: > 100 µM |
| COc1ccc(-c2c(C#N)c(-c3ccc(C)cc3)n(NS(=O)(=O)c3ccccc3)c(=O)c2C#N)cc1 | inactive: > 100 µM |
| O=C(NN1C(=O)CS(=O)(=O)C1c1ccc(C(F)(F)F)cc1)c1ccncc1 (stereo not drawn) | inactive: > 100 µM |
| N#C/C(=C\c1ccc(O)c(O)c1)C(=O)NC1CCC(CC2CCC(NC(=O)/C(C#N)=C/c3ccc(O)c(O)c3)CC2)CC1 (stereo not drawn) | inactive: 13.1 µM |
| OC(c1ccccc1Br)(c1ccccc1Br)C(F)(F)F | inactive: 44 µM |
| C/C(=N\Nc1nc2ccccc2[nH]1)c1cccc[n+]1[O-] | inactive: 44.1 µM |
| Cc1c(Cl)cccc1NC(=O)C(=O)C1C(=O)CC(C)(C)CC1=O | inactive: > 100 µM |
| CC12ON(P(=O)(c3ccccc3)c3ccccc3)C(C)(c3ccccc31)c1ccccc12 | inactive: > 100 µM |
| CC(C)(C)c1ccc(OCCOc2ccc(C(C)(C)C)cc2N)c(N)c1 | inactive: > 100 µM |
| C=C(COC(C)=O)CC(/C=C(\C)CC/C=C(\C)CO)OC(C)=O (stereo not drawn) | inactive: > 100 µM |
| OC1(c2ccc3ccccc3c2)c2c(c3ccccc3c3ccccc23)C2=NCCN21 (stereo not drawn) | inactive: 6.5 µM |
| Nc1ncnc2c1ncn2C1CC(O)C(CO)O1 (stereo not drawn) | inactive: > 100 µM |
| O=C(c1cccs1)N(C(=S)OC12CC3CC(CC(C3)C1)C2)c1ccccc1 | inactive: 35.8 µM |
| CN(C)CC1CC/C(=C\c2ccc(Cl)cc2)C1=O (stereo not drawn) | inactive: 18.6 µM |
| COc1cc(S(=O)(=O)Nc2nc(-c3ccc(N)cc3)cs2)ccc1Cl | inactive: > 100 µM |
| O=c1oc2ccccc2c(O)c1C1c2c(c3ccccc3oc2=O)Oc2c1c(=O)oc1ccccc21 | inactive: 54.6 µM |
| CCOc1ccccc1Nc1ccc(N)cc1S(=O)(=O)O | inactive: > 100 µM |

| Compound | GI50 |
| --- | --- |
| CC1=C[C@]2(CC(C)C3C(CC4(C)C5CCC6C(C)(C)C(=O)CC[C@@]67C[C@@]57CC[C@]34C)O2)OC1=O (stereo partly drawn) | inactive: 54.5 µM |
| O=C(CC(C(=O)c1cccs1)c1ccsc1)c1ccco1 (stereo not drawn) | inactive: 12.4 µM |
| Cc1cccc(C)c1N1C(=O)C(=O)C(c2nc3ccccc3s2)/C(=N/NC(=O)c2ccccc2O)C1=O (stereo not drawn) | inactive: 58.9 µM |
| CC(Cl)CN1c2ccccc2Sc2ccc(Cl)cc21 (stereo not drawn) | inactive: > 10 µM |
| CCC(C)[C@H](NC(=O)[C@H](Cc1ccccc1)NC(=O)N(CC)c1ccccc1)C(=O)N[C@@H](CC(C)C)C(=O)OC (stereo partly drawn) | inactive: 45.4 µM |
| COC(=O)c1c(OC)cccc1C(=O)O | inactive: > 100 µM |
| CCOC(=O)C1C(c2ccc(OC)cc2)c2c(nn(-c3ccccc3)c2O)CC1(C)O (stereo not drawn) | inactive: > 100 µM |
| Cc1ccc([N+](=O)[O-])cc1S(=O)(=O)Nc1ccc(C2=NNC(c3ccccc3)C2)cc1 (stereo not drawn) | inactive: 29.4 µM |
| CC1CCC2C(C)C(=O)OC2C2(C)C(=O)C=CC12 (stereo not drawn) | inactive: > 10 µM |
| O=C(O)C12C3C4(C(=O)O)C1C1(C(=O)O)C2C3(C(=O)O)C41 (stereo not drawn) | inactive: > 100 µM |
| CC1CC2OC(=O)C3CC(O)CC(=C23)[C@@]12C[C@@H](c1ccoc1)OC2=O (stereo partly drawn) | inactive: > 100 µM |
| O=[N+]([O-])c1cccc(-c2cn3c(n2)Cc2ccccc2C3)c1 | inactive: 86.3 µM |
| OCc1c(-c2cccc3ccccc23)sc(-c2cccc3ccccc23)c1CO | inactive: 15.3 µM |
| COc1ccc(C2COc3cc(OC(C)=O)c(OC(C)=O)cc3C2)cc1 (stereo not drawn) | inactive: 18.2 µM |
| c1ccc2c3c(ccc2c1)CSCc1ccc2ccccc2c1-3 | inactive: > 100 µM |
| O=C(CN1c2ccccc2Sc2ccccc21)n1cnc2ccccc21 | inactive: > 100 µM |
| CCCCCCCCCOCC(COP(=O)([O-])OCC[N+](C)(C)C)OC (stereo not drawn) | inactive: > 100 µM |
| C=C1C(=O)OC2/C=C(/CO)C3(O)CC(O)C(C)(CC(OC(=O)/C(C)=C/C)C12)O3 (stereo not drawn) | inactive: 44.7 µM |
| CC(C)N(C(=O)C12C3C4C1C1C2C3C41C#N)C(C)C (stereo not drawn) | inactive: > 100 µM |
| C=CCC1(O)c2ccccc2C(=O)c2c(O)ccc(O)c21 (stereo not drawn) | inactive: 19 µM |
| Cn1cnc([N+](=O)[O-])c1Sc1nc2cccnc2s1 | inactive: 53.1 µM |
| CCCCNC(=NC#N)NCCCC | inactive: > 100 µM |
| Cc1cccc2c1NC(=S)[C@@H]1CCCN1C2=O | inactive: > 100 µM |
| CCOC(=O)c1ccc(C(=O)/C(C(C)=O)=C2\CCCN2C)n1C | inactive: > 100 µM |

| Compound | GI50 |
| --- | --- |
| COC(=O)OCC1OC(N2C(=O)NC(=O)C(I)C2N=[N+]=[N-])CC1OC(=O)OC (stereo not drawn) | inactive: > 100 µM |
| O=C(O)c1ccc(C(=O)O)c2c(C(=O)O)ccc(C(=O)O)c12 | inactive: > 100 µM |
| O=c1[nH]c(=O)n(C2OC(CO)C(O)C2O)cc1Oc1ccccc1 (stereo not drawn) | inactive: > 100 µM |
| O=S1(=O)CCN(c2ccccc2CC(c2c[nH]c3ccccc23)c2c[nH]c3ccccc23)CC1 | inactive: 14 µM |
| CCCCOC(=O)NC(Nc1ccc(S(N)(=O)=O)cc1)(C(F)(F)F)C(F)(F)F | inactive: > 100 µM |
| COc1cc(C2c3cc4c(cc3[C@@H](Nc3ccc(F)cc3)C3COC(=O)[C@H]23)OCO4)cc(OC)c1O (stereo partly drawn) | inactive: 11.2 µM |
| CCOC(=O)c1ccc(Nc2nc3ccccc3nc2-c2cccs2)cc1 | inactive: > 100 µM |
| C=CC(Br)(CBr)CCC(Br)C(C)(C)Cl (stereo not drawn) | inactive: 2.99 µM |
| Cc1ccc(/C=N/Nc2ccccn2)s1 | inactive: > 38.9 µM |
| CC(Br)C(=O)NC(CO)C(=O)O (stereo not drawn) | inactive: > 100 µM |
| NC(=O)NC1C(C(=O)O)N(Cc2ccccc2)C(=O)N1Cc1ccccc1 (stereo not drawn) | inactive: > 100 µM |
| C/C(=N/NS(=O)(=O)c1ccccc1)c1cccc[n+]1[O-] | inactive: > 100 µM |
| CC(C)CCNC(=O)c1ccc(CNC(=O)/C=C/c2ccc3c(c2)-c2ccccc2C3)cc1 | inactive: > 100 µM |
| CCOP(=O)(OCC)C(Cc1ccc(Cl)cc1)NS(=O)(=O)c1ccc(C)cc1 (stereo not drawn) | inactive: > 100 µM |
| Cc1ccc(/C=C2\Sc3scc(-c4ccccc4)[n+]3C2=O)cc1 | inactive: 23.9 µM |
| CC(C)(C)OC(=O)CN1CCNCCN(CC(=O)OC(C)(C)C)CCNCC1 | inactive: 62.5 µM |
| O=C(O)CO/N=C1/C(=C2/C(=O)Nc3ccccc32)Nc2ccccc21 | inactive: 30.5 µM |
| C#CCn1c(=O)c(Cl)cn(/C(=C/C(=O)OCC)C(=O)OCC)c1=O | inactive: > 41.6 µM |
| O=C(O)c1cscc1Cc1cccs1 | inactive: > 100 µM |
| CC(C)c1cccc2sc(NC(=O)C(=O)CC(=O)c3ccc(F)cc3)nc12 | inactive: > 100 µM |
| O=C(O)C(F)(F)C(F)(F)C(F)(F)C(F)(F)C(F)(F)C(F)(F)C(F)(F)C(F)(F)F | inactive: 53.5 µM |
